The list shows a part of the results.
Columns and labels:
Assay in all cases: glycan array binding signal (z-score within array); higher = stronger binding
Settings in all cases: glycan notation: IUPAC condensed, linker removed
[1] = target: GalNAc(b1-4)GlcNAc(b1-2)Man(a1-3)[GalNAc(b1-4)GlcNAc(b1-2)Man(a1-6)]Man(b1-4)GlcNAc(b1-4)GlcNAc
Outline: (§1)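 The binding signal is a Z-score computed within each array and averaged over linkers. Arrays of the same protein sequence at different concentrations or buffers were also averaged together. Data originate from 3228 arrays in the Consortium for Functional Glycomics database, kept only where the protein sequence was available.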

[2] = target: GalNAc(b1-4)GlcNAc(b1-3)GalNAc(b1-4)GlcNAc
Outline: as §1

GalNAc(b1-4)GlcNAc6S = target: GalNAc(b1-4)GlcNAc6S
Outline: as §1

GalNAc(b1-6)GalNAc = target: GalNAc(b1-6)GalNAc
Outline: as §1

GalNAc3S(b1-4)GlcNAc = target: GalNAc3S(b1-4)GlcNAc
Outline: as §1

GalNAc3S(b1-4)GlcNAc3S = target: GalNAc3S(b1-4)GlcNAc3S
Outline: as §1

[3] = target: GalNAc3S(b1-4)[Fuc(a1-3)]GlcNAc
Outline: as §1

GalNAc4S6S(b1-4)GlcNAc = target: GalNAc4S6S(b1-4)GlcNAc
Outline: as §1

GalNAc6S(b1-4)GlcNAc = target: GalNAc6S(b1-4)GlcNAc
Outline: as §1

Glc(a1-4)Glc = target: Glc(a1-4)Glc
Outline: as §1

[4] = target: Glc(a1-4)Glc(a1-4)Glc(a1-4)Glc
Outline: as §1

Glc(a1-6)Glc(a1-6)Glc = target: Glc(a1-6)Glc(a1-6)Glc
Outline: as §1

[5] = target: Glc(a1-6)Glc(a1-6)Glc(a1-6)Glc
Outline: as §1

Glc(b1-4)Glc = target: Glc(b1-4)Glc
Outline: as §1

Glc(b1-6)Glc = target: Glc(b1-6)Glc
Outline: as §1

GlcA(b1-3)Gal = target: GlcA(b1-3)Gal
Outline: as §1

GlcA(b1-3)GlcNAc = target: GlcA(b1-3)GlcNAc
Outline: as §1

GlcA(b1-6)Gal = target: GlcA(b1-6)Gal
Outline: as §1

[6] = target: GlcA3S(b1-3)Gal(b1-4)GlcNAc(b1-2)Man
Outline: as §1

[7] = target: GlcA3S(b1-3)Gal(b1-4)GlcNAc(b1-3)Gal(b1-4)Glc
Outline: as §1

[8] = target: GlcNAc(a1-3)Gal(b1-4)GlcNAc
Outline: as §1

[9] = target: GlcNAc(a1-4)Gal(b1-3)GlcNAc
Outline: as §1

[10] = target: GlcNAc(a1-4)Gal(b1-4)GalNAc
Outline: as §1

[11] = target: GlcNAc(a1-4)Gal(b1-4)GlcNAc
Outline: as §1

[12] = target: GlcNAc(a1-4)Gal(b1-4)GlcNAc(b1-3)Gal(b1-4)Glc
Outline: as §1

[13] = target: GlcNAc(a1-4)Gal(b1-4)GlcNAc(b1-3)Gal(b1-4)GlcNAc
Outline: as §1

[14] = target: GlcNAc(a1-4)Gal(b1-4)GlcNAc(b1-3)Gal(b1-4)GlcNAc(b1-3)Gal(b1-4)GlcNAc
Outline: as §1

[15] = target: GlcNAc(a1-4)Gal(b1-4)GlcNAc(b1-3)Gal(b1-4)[Fuc(a1-3)]GlcNAc(b1-3)Gal(b1-4)[Fuc(a1-3)]GlcNAc
Outline: as §1

[16] = target: GlcNAc(a1-6)Gal(b1-4)GlcNAc
Outline: as §1

[17] = target: GlcNAc(b1-2)Gal(b1-3)GalNAc
Outline: as §1

[18] = target: GlcNAc(b1-2)Man(a1-3)[GlcNAc(b1-2)Man(a1-6)]Man(b1-4)GlcNAc(b1-4)GlcNAc
Outline: as §1

[19] = target: GlcNAc(b1-2)Man(a1-3)[GlcNAc(b1-2)Man(a1-6)]Man(b1-4)GlcNAc(b1-4)[Fuc(a1-6)]GlcNAc
Outline: as §1

[20] = target: GlcNAc(b1-2)Man(a1-3)[GlcNAc(b1-4)][GlcNAc(b1-2)Man(a1-6)]Man(b1-4)GlcNAc(b1-4)GlcNAc
Outline: as §1

[21] = target: GlcNAc(b1-2)Man(a1-3)[GlcNAc(b1-4)][GlcNAc(b1-2)Man(a1-6)]Man(b1-4)GlcNAc(b1-4)[Fuc(a1-6)]GlcNAc
Outline: as §1

[22] = target: GlcNAc(b1-2)[GlcNAc(b1-4)]Man(a1-3)[GlcNAc(b1-2)Man(a1-6)]Man(b1-4)GlcNAc(b1-4)GlcNAc
Outline: as §1

[23] = target: GlcNAc(b1-2)[GlcNAc(b1-4)]Man(a1-3)[GlcNAc(b1-4)][GlcNAc(b1-2)Man(a1-6)]Man(b1-4)GlcNAc(b1-4)GlcNAc
Outline: as §1

[24] = target: GlcNAc(b1-2)[GlcNAc(b1-4)]Man(a1-3)[GlcNAc(b1-4)][GlcNAc(b1-2)[GlcNAc(b1-6)]Man(a1-6)]Man(b1-4)GlcNAc(b1-4)GlcNAc
Outline: as §1

B1: Pbx1 (Cryptococcus neoformans) (protein)
chain: ATTKCLVSGDQDSINNALALGGEGTTVTLCPGSVHRLNSSIIFTAPSQTLTTLGNPKDRNRAMLVVDGEDLACAIRADCKQCSHAMIRSLVIDGNRPQLLRIPKGDALIEVGNAESQTVRDCKLYEPRGWSALHFREGDERQCRFGHIVDNEIGPCGEEWDDEYDSMDETKPLWGNPRADGISLACKDSIVERNVVYDATDGAIVLFGSAGSTVKNNHVYARTRVILGGINLVDYEPWDGDYTNVKVHHNHLYALGRYFKVGIVIGPASWSDDTESVVHSASVTDNEFSGGYWGYGIVVASAKNFEVLRNKVIWDGEQGVARFSGVPGSRCPKAPENGKPTAFLINRGSAKGIFQDDFVNGEVQHIICLNPDQDPPYKPWRFRDSPEAIAAKQAENPTANSAFDSRIAEALVSYQMSLLNSMDAMTQKVEHLTNPIVDDALPFVHEHERAEADKKARQEASRKEKESGNKDVDMLNVKVEELEKSGRRLKKALDGLKSDFEGLSGRLKKSADENKPIIETIFVTSQNLLLGATSQQN
glycan array binding signal (z-score) [1]: -0.089
glycan array binding signal (z-score) [2]: 0.461
glycan array binding signal (z-score) (GalNAc(b1-4)GlcNAc6S): 0.049
glycan array binding signal (z-score) (GalNAc(b1-6)GalNAc): -0.445
glycan array binding signal (z-score) (GalNAc3S(b1-4)GlcNAc): -0.794
glycan array binding signal (z-score) (GalNAc3S(b1-4)GlcNAc3S): -0.382
glycan array binding signal (z-score) [3]: 0.766
glycan array binding signal (z-score) (GalNAc4S6S(b1-4)GlcNAc): 0.624
glycan array binding signal (z-score) (GalNAc6S(b1-4)GlcNAc): 0.388
glycan array binding signal (z-score) (Glc(a1-4)Glc): 0.352
glycan array binding signal (z-score) [4]: -0.56
glycan array binding signal (z-score) (Glc(a1-6)Glc(a1-6)Glc): -0.461
glycan array binding signal (z-score) [5]: -0.698
glycan array binding signal (z-score) (Glc(b1-4)Glc): 0.233
glycan array binding signal (z-score) (Glc(b1-6)Glc): 0.036
glycan array binding signal (z-score) (GlcA(b1-3)Gal): -0.024
glycan array binding signal (z-score) (GlcA(b1-3)GlcNAc): 0.759
glycan array binding signal (z-score) (GlcA(b1-6)Gal): -0.833
glycan array binding signal (z-score) [6]: 0.112
glycan array binding signal (z-score) [7]: -0.292
glycan array binding signal (z-score) [8]: 0.052
glycan array binding signal (z-score) [9]: 0.141
glycan array binding signal (z-score) [10]: 0.515
glycan array binding signal (z-score) [11]: -0.389
glycan array binding signal (z-score) [12]: -0.204
glycan array binding signal (z-score) [13]: -0.242
glycan array binding signal (z-score) [14]: -0.314
glycan array binding signal (z-score) [15]: 0.341
glycan array binding signal (z-score) [16]: -0.066
glycan array binding signal (z-score) [17]: 0.044
glycan array binding signal (z-score) [18]: 0.062
glycan array binding signal (z-score) [19]: 0.568
glycan array binding signal (z-score) [20]: -0.301
glycan array binding signal (z-score) [21]: -0.818
glycan array binding signal (z-score) [22]: -0.554
glycan array binding signal (z-score) [23]: -0.851
glycan array binding signal (z-score) [24]: 0.401
